# A collection of fitness landscapes (doi:10.1126/science.1257360)
# Some of the results follow.
# B1: PhoQ; a variant is named by its letters at X, in order, P23837 (parent)
# chain: MKKLLRLFFPLSLRVRFLLATAAVVLVLSLAYGMVALIGYSVSFDKTTFRLLRGESNLFYTLAKWENNKLHVELPENIDKQSPTMTLIYDENGQLLWAQRDVPWLMKMIQPDWLKSNGFHEIEADVNDTSLLLSGDHSIQQQLQEVREDDDDAEMTHSVAVNVYPATSRMPKLTIVVVDTIPVELKSSYMVWSWFIYVLSANLLLVIPLLWVAAWWSLRPIEALAKEVRELEEHNRELLNPATTRELTSLVRNLNRLLKSERERYDKYRTTLTDLTHSLKTPLXXLQXXLRSLRSEKMSVSDAEPVMLEQISRISQQIGYYLHRASMRGGTLLSRELHPVAPLLDNLTSALNKVYQRKGVNISLDISPEISFVGEQNDFVEVMGNVLDNACKYCLEFVEISARQTDEHLYIVVEDDGPGIPLSKREVIFDRGQRVDTLRPGQGVGLAVAREITEQYEGKIVAGESMLGGARMEVIFGRQHSAPKDE
# Variants of: B1
# Assay: enrichment ratio after two sorts for PhoP signalling (ratio (wild type AVST 3.29)); higher = more functional
# Settings: with PhoP (E. coli)
row,Variant,enrichment ratio
1,CSVT,3.01
2,WATW,≤ 0.25
3,PVKH,≤ 0.25
4,LFFY,≤ 0.25
5,RVAR,≤ 0.25
6,TMFA,≤ 0.25
7,EDLG,≤ 0.25
8,SLPQ,≤ 0.25
9,PVPT,≤ 0.25
10,PPTD,≤ 0.25
11,GYGM,≤ 0.25
12,LSCE,≤ 0.25
13,TEHT,27.2
14,LAIC,≤ 0.25
15,NVSD,≤ 0.25
16,YEQM,≤ 0.25
17,HDTL,≤ 0.25
18,TIAM,9.93
19,YLGH,≤ 0.25
20,VSTQ,≤ 0.25
21,WMPT,≤ 0.25
22,YKSV,≤ 0.25
23,FRYY,≤ 0.25
24,MRGY,≤ 0.25
25,HFEV,≤ 0.25
26,PPPD,≤ 0.25

row,Variant,enrichment ratio
1,TLPT,≤ 0.25
2,HEYA,≤ 0.25
3,SKMH,3.94
4,SRAH,≤ 0.25
5,RNAF,≤ 0.25
6,SKWD,≤ 0.25
7,WGMD,≤ 0.25
8,SGAF,1.22
9,AIRP,≤ 0.25
10,LGEY,≤ 0.25
11,TQAI,3.21
12,EFHF,≤ 0.25
13,KVQN,≤ 0.25
14,PYKC,≤ 0.25
15,TNPF,≤ 0.25
16,ISSF,≤ 0.25
17,PAWF,≤ 0.25
18,YIKH,≤ 0.25
19,MKWN,≤ 0.25
20,FVLT,≤ 0.25
21,TSWG,16.6
22,TWPW,≤ 0.25
23,AKTL,12.5
24,GQFG,≤ 0.25
25,PQVP,≤ 0.25
26,RMRW,≤ 0.25

row,Variant,enrichment ratio
1,WRYI,≤ 0.25
2,VGLA,0.487
3,LEPG,≤ 0.25
4,HINF,≤ 0.25
5,MSTQ,≤ 0.25
6,TPQD,≤ 0.25
7,KPYD,≤ 0.25
8,DKFC,≤ 0.25
9,RVVL,≤ 0.25
10,PSHL,≤ 0.25
11,IEYF,≤ 0.25
12,EEMI,≤ 0.25
13,TEDF,≤ 0.25
14,HTLQ,1.59
15,DHHD,≤ 0.25
16,SPDQ,≤ 0.25
17,FQGY,≤ 0.25
18,VSIN,≤ 0.25
19,LCIW,≤ 0.25
20,ASWF,≤ 0.25
21,DDRR,≤ 0.25
22,PTKR,≤ 0.25
23,MATV,≤ 0.25
24,ADPK,≤ 0.25
25,KTNL,≤ 0.25
26,NWES,≤ 0.25

row,Variant,enrichment ratio
1,YCWF,≤ 0.25
2,LRNF,≤ 0.25
3,PVWN,≤ 0.25
4,PKYN,≤ 0.25
5,VTIA,≤ 0.25
6,SGRS,≤ 0.25
7,LYNI,≤ 0.25
8,FTPC,≤ 0.25
9,YISC,0.923
10,GFWA,≤ 0.25
11,TWDA,≤ 0.25
12,FNPV,≤ 0.25
13,APHT,≤ 0.25
14,LLGW,≤ 0.25
15,KFRK,≤ 0.25
16,TDHW,≤ 0.25
17,GGLN,7.34
18,KVYR,≤ 0.25
19,SQSL,9.58
20,YKAR,≤ 0.25
21,QPCY,≤ 0.25
22,RKWL,≤ 0.25
23,NTAR,≤ 0.25
24,PIQI,≤ 0.25
25,IHQT,≤ 0.25
26,LLQM,≤ 0.25

row,Variant,enrichment ratio
1,SLWW,≤ 0.25
2,GHDE,≤ 0.25
3,SPII,≤ 0.25
4,HRPW,≤ 0.25
5,LPSM,≤ 0.25
6,QPPK,≤ 0.25
7,FQIY,≤ 0.25
8,VATH,≤ 0.25
9,QLKT,≤ 0.25
10,TGNM,2.24
11,VYSP,≤ 0.25
12,TTLN,23.9
13,RTAP,≤ 0.25
14,FEFV,1.52
15,PVFI,≤ 0.25
16,WEAV,≤ 0.25
17,WMRL,≤ 0.25
18,HRRD,≤ 0.25
19,GDRY,≤ 0.25
20,TPPK,≤ 0.25
21,FLIA,≤ 0.25
22,IKNT,≤ 0.25
23,QGTL,4.13
24,KYMT,≤ 0.25
25,RMYR,≤ 0.25
26,LYCH,≤ 0.25

row,Variant,enrichment ratio
1,YLLC,≤ 0.25
2,RCYL,≤ 0.25
3,WVMF,≤ 0.25
4,TRYM,1.45
5,QDKR,≤ 0.25
6,QMVQ,≤ 0.25
7,HNMK,≤ 0.25
8,FWAG,≤ 0.25
9,GIWY,≤ 0.25
10,ATPW,≤ 0.25
11,MFTT,≤ 0.25
12,GSVD,≤ 0.25
13,CISH,≤ 0.25
14,KDLG,≤ 0.25
15,NLMK,≤ 0.25
16,NQDN,≤ 0.25
17,YMVQ,≤ 0.25
18,KSKR,≤ 0.25
19,FKVM,≤ 0.25
20,PHMP,≤ 0.25
21,THVC,≤ 0.25
22,IENM,≤ 0.25
23,SERG,≤ 0.25
